# Source: the supplement of paper PMC10441789
# The list shows a part of the results. Antibody binding of pooled human sera (four to six donors per pool; dilution not stated) to peptides of the Trypanosoma cruzi antigen TSSA on microarrays. Quantile-normalised fluorescence in arbitrary units, mean of duplicate arrays; higher = more binding. No active / inactive call. The uninfected pools are read here as the healthy donors of the same country. The strongest signals lie near the top of the scale (about 60,000).
# Test system: pooled sera of uninfected people, Bolivia
# Assay: antibody binding signal (normalised fluorescence) (arbitrary fluorescence units); higher = stronger serum antibody binding to peptide
# Description: (§1)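 Microarray of 15-residue peptides over residues 30-55 of Trypanosoma cruzi TSSAII, each with 1 to 10 substitutions at naturally variable positions, probed with one serum pool per country.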
row,Sequence,antibody binding signal
1,KKTAAGETPSQPGAS,370
2,GTEKKAAAGETPSQS,819
3,KENKTATGETPSPPG,219
4,EKKTATGGTPSQSGA,499
5,TDNKTATGGAPSPSG,384
6,PSGTENKTAAGGAPS,662
7,GKDKKTAAGEAPSQS,101
8,TPPSGTEKKTAAGEA,250
9,TISTPPSGKENKTAA,1390
10,SSTPPSGKEKKPAAG,674
11,TENKAAAGGTPSPSG,182
12,TENKAAAGETPSPSG,202
13,KENKPATGGAPSQPG,761
14,KENKPAAGETPSQSG,398
15,SSTPPSGKEKKTATG,217
16,GTDKKTATGGTPSPS,210
17,PSGTEKKPATGGTPS,541
18,TEKKAATGETPSQPG,337
19,TENKPAAGEAPSPSG,317
20,EKKAATGEAPSQPGA,799

row,Sequence,antibody binding signal
1,GTENKAATGETPSQP,382
2,GTEKKPATGEAPSPP,1320
3,PPSGTEKKTAAGEAP,344
4,GTENKPATGETPSPP,1070
5,SSTPPSGKEKKAAAG,446
6,GKENKTATGGAPSQP,104
7,EKKTAAGGAPSQSGA,728
8,KPATGGTPSQSGASS,620
9,GKDNKAAAGEAPSPS,288
10,TSSTPPSGKEKKPAA,292
11,TSSTPPSGKDKKAAA,319
12,NKAATGETPSQPGAS,1950
13,SGKDNKPAAGEAPSQ,734
14,TDKKPAAGETPSPSG,316
15,PSGTENKAATGGAPS,532
16,EKKPATGGTPSPPGA,887
17,DNKPATGETPSPSGA,354
18,SGKDNKPAAGGTPSP,654
19,KKPATGETPSPSGAS,445

# Test system: pooled sera of uninfected people, Brazil
# Assay: as above
# Description: as §1
row,Sequence,antibody binding signal
1,KKTAAGETPSQPGAS,133
2,GTEKKAAAGETPSQS,205
3,KENKTATGETPSPPG,221
4,EKKTATGGTPSQSGA,422
5,TDNKTATGGAPSPSG,326
6,PSGTENKTAAGGAPS,572
7,GKDKKTAAGEAPSQS,107
8,TPPSGTEKKTAAGEA,482
9,TISTPPSGKENKTAA,274
10,SSTPPSGKEKKPAAG,147
11,TENKAAAGGTPSPSG,1590
12,TENKAAAGETPSPSG,198
13,KENKPATGGAPSQPG,144
14,KENKPAAGETPSQSG,179
15,SSTPPSGKEKKTATG,83.1
16,GTDKKTATGGTPSPS,239
17,PSGTEKKPATGGTPS,993
18,TEKKAATGETPSQPG,346
19,TENKPAAGEAPSPSG,204
20,EKKAATGEAPSQPGA,150

row,Sequence,antibody binding signal
1,GTENKAATGETPSQP,304
2,GTEKKPATGEAPSPP,1260
3,PPSGTEKKTAAGEAP,514
4,GTENKPATGETPSPP,342
5,SSTPPSGKEKKAAAG,104
6,GKENKTATGGAPSQP,124
7,EKKTAAGGAPSQSGA,196
8,KPATGGTPSQSGASS,177
9,GKDNKAAAGEAPSPS,95.6
10,TSSTPPSGKEKKPAA,101
11,TSSTPPSGKDKKAAA,130
12,NKAATGETPSQPGAS,595
13,SGKDNKPAAGEAPSQ,206
14,TDKKPAAGETPSPSG,173
15,PSGTENKAATGGAPS,555
16,EKKPATGGTPSPPGA,969
17,DNKPATGETPSPSGA,417
18,SGKDNKPAAGGTPSP,476
19,KKPATGETPSPSGAS,106
